In PMC12209456, “Serine/threonine/tyrosine kinase 1 drives pancreatic carcinogenesis via GSK3β sequestration-mediated Wnt/β-catenin pathway hyperactivation” (Signal Transduction and Targeted Therapy, 2025):
Results are given in words; binding and its absence hold for the method and conditions named. Some results given as binding are weak or reduced against the parent protein; the word gives no strength. Sequences can lack the tags named with a protein.

The chains behind the UniProt entries cited, without tags or fusion partners.
UniProt P49841: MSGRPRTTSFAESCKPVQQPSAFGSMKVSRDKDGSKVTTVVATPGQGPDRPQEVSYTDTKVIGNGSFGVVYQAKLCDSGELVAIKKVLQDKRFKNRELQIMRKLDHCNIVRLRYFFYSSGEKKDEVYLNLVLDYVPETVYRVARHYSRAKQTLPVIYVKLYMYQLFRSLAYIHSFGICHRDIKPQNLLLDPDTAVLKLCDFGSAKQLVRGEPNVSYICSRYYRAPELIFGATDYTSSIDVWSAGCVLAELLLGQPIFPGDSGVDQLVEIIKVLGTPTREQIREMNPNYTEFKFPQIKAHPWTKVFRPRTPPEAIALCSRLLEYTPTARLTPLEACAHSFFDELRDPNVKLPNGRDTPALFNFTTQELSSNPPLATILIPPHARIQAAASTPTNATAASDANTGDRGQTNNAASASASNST
UniProt P35222: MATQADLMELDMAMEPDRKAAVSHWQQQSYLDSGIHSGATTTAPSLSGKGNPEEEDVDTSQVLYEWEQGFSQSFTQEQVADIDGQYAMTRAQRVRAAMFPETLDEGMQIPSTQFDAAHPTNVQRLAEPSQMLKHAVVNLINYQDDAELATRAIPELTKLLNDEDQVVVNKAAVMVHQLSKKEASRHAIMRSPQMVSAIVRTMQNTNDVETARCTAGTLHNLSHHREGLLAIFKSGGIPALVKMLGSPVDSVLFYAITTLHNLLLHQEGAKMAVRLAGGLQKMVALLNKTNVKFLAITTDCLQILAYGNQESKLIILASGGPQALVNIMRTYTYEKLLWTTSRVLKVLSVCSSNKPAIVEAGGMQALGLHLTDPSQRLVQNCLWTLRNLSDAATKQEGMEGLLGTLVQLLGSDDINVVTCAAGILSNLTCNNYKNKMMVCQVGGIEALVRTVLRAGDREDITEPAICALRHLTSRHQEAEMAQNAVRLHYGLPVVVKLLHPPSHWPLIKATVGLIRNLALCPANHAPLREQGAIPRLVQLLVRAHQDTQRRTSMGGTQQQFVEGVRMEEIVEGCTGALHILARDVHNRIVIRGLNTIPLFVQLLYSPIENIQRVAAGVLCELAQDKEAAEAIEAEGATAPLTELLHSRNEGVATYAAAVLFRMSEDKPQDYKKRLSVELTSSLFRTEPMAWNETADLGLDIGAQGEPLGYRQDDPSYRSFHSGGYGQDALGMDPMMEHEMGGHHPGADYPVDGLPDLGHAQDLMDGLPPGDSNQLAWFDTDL

Columns and labels:
His-tagged GSK3β = His-tagged GSK3β (UniProt P49841); assay: pull-down; purified GST-STYK1 ICD incubated with His-tagged β-catenin or GSK3β and Ni-sepharose beads overnight at 4 °C, Western blot; both purified
His-tagged β-catenin = His-tagged β-catenin (UniProt P35222); assay: as above

binding (His-tagged GSK3β): binds
binding (His-tagged β-catenin): binds
B1: GST-tagged STYK1 ICD (aa 26-422) (domain or fragment, UniProt Q6J9G0 26-422)
chain: VIIVPTLLVTIFLILLGVILWLFIREQRTQQQRSGPQGIAPVPPPRDLSWEAGHGGNVALPLKETSVENFLGATTPALAKLQVPREQLSEVLEQICSGSCGPIFRANMNTGDPSKPKSVILKALKEPAGLHEVQDFLGRIQFHQYLGKHKNLVQLEGCCTEKLPLYMVLEDVAQGDLLSFLWTCRRDVMTMDGLLYDLTEKQVYHIGKQVLLALEFLQEKHLFHGDVAARNILMQSDLTAKLCGLGLAYEVYTRGAISSTQTIPLKWLAPERLLLRPASIRADVWSFGILLYEMVTLGAPPYPEVPPTSILEHLQRRKIMKRPSSCTHTMYSIMKSCWRWREADRPSPRELRLRLEAAIKTADDEAVLQVPELVVPELYAAVAGIRVESLFYNYSML
